{
  "source": "PubChem BioAssay AID743279",
  "about": "(National Center for Advancing Translational Sciences (NCATS), 2014)",
  "note": "The campaign covered roughly 360,000 compounds. About 17,000 (4.7%) were called active. The shares of active, inactive and inconclusive entries below differ from those in the screen. Cut-off read from the data, not from the text of the source: active = activity change below about -50%; inconclusive = mostly about -30% to -49%; inactive = weaker than that. % is set by controls: 0 for no effect and ±100 for the full control effect.",
  "data": [
    {"experiment": "qHTS for Inhibitors of Inflammasome Signaling: IL-1-beta AlphaLISA Primary Screen", "details": "THP-1 LPS/ATP IL-1B secretion, 16 h; at 57.5 µM, active compounds read low", "outline": "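Secreted IL-1B measured by AlphaLISA bead assay after 16 h compound exposure of THP-1 cells; compounds (final up to 57.5 uM) added 1 h before LPS (250 ng/mL) and ATP (1.25 mM) stimulation; lower signal means less secretion.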", "values": [
      {"smiles": "CCC(C(=O)NCc1ccco1)N(C(=O)CNS(=O)(=O)c1ccccc1)c1ccc(OC)cc1", "note": "(stereo not given)", "activity change": "inactive: 9.43%"},
      {"smiles": "O=C(COc1ccc2c3c(c(=O)oc2c1)CCCC3)NCCCN1CCCC1=O", "activity change": "inconclusive: -48.1%"},
      {"smiles": "Cc1ccc(NC(=O)CSC2=C(C#N)C(c3ccco3)C3=C(CCCC3=O)N2)cc1", "note": "(stereo not given)", "activity change": "active: -51.9%"},
      {"smiles": "Cc1cccc(-n2cc(CN3CCN(Cc4nccn4C)CC3)c(-c3cccc(F)c3)n2)c1", "activity change": "inconclusive: -30.8%"},
      {"smiles": "CC[C@@]1(c2ccccc2)C(=O)N(C(=O)OC)N1C(=O)OC", "activity change": "inconclusive: -46.5%"},
      {"smiles": "O=[N+]([O-])c1ccccc1/C=N/N1CCN(c2ccccn2)CC1", "activity change": "inconclusive: -36.5%"},
      {"smiles": "COc1ccccc1CCNC(=O)c1ccc(Br)s1", "activity change": "inconclusive: -38.2%"},
      {"smiles": "COc1ccc(/C=N/c2c(-c3ccc(OC)cc3)nc3n2CCS3)cc1", "activity change": "inconclusive: -34.8%"},
      {"smiles": "COc1ccc(-c2sc3cc(OC)c(OC)cc3c2-c2ccc(O)cc2)cc1", "activity change": "active: -53.8%"},
      {"smiles": "COC(=O)C1=C(C)N(Cc2ccccc2)C(=NCCCCO)N[C@H]1CCc1ccccc1", "activity change": "inconclusive: -33.2%"},
      {"smiles": "COC(=O)c1ccccc1-c1c2ccc(=N)cc-2oc2cc(N)ccc12", "activity change": "active: -91.6%"},
      {"smiles": "COc1ccc(CCCc2nnc(SCC(=O)Nc3nc(C)cs3)n2C)cc1C", "activity change": "inactive: -4.84%"},
      {"smiles": "COc1ccc(NC(=O)C2(C)CCN2C(=O)Cc2ccccc2)cc1OC", "note": "(stereo not given)", "activity change": "inactive: 4.42%"},
      {"smiles": "Cc1cccc(CSc2nnc(-c3ccco3)n2C)c1", "activity change": "inconclusive: -43.8%"},
      {"smiles": "NS(=O)(=O)c1ccc(CCNc2nn3c(-c4ccc(F)c(Cl)c4)cnc3s2)cc1", "activity change": "inconclusive: -43.7%"},
      {"smiles": "COc1ccc(Cn2nnnc2C(c2ccccn2)N2CCN(c3cc(Cl)ccc3C)CC2)cc1", "note": "(stereo not given)", "activity change": "inconclusive: -43.5%"},
      {"smiles": "C#CCOCCOCCOCCNc1nc(N2CCN(C(=O)CCCCCCCCCCNC(=O)[C@H]([C@@H](C)CC)n3cc(CCCCN=C(N)N)nn3)CC2)nc(N2CCN(C(=O)CCCCCCCCCCNC(=O)[C@@H]([C@H](C)O)n3cc(C)nn3)CC2)n1", "activity change": "inconclusive: -39.4%"},
      {"smiles": "O=C(c1sccc1Cl)N1CCN(Cc2ccc3c(c2)OCO3)CC1", "activity change": "active: -80.9%"},
      {"smiles": "O=C(Nc1ccc2c(c1)OCCO2)Nc1ccc2c(c1)OCO2", "activity change": "inconclusive: -33.5%"},
      {"smiles": "COCCCNc1nc2c(-c3cccc(C)c3)nnn2c2ccccc12", "activity change": "inactive: 1.95%"},
      {"smiles": "Cc1noc(C)c1COc1ccc(C(=O)OC(C)C(=O)Nc2ccc(S(=O)(=O)N3CCOCC3)cc2)cc1", "note": "(stereo not given)", "activity change": "inactive: 16.1%"},
      {"smiles": "Cc1ccc(NS(=O)(=O)c2cc(C(=O)OCC(=O)NCC3CCCO3)ccc2C)cc1", "note": "(stereo not given)", "activity change": "inactive: 29.2%"},
      {"smiles": "Cc1ccc2c(Cl)c(C(=O)NCCCn3ccnc3)sc2c1", "activity change": "inconclusive: -42.7%"},
      {"smiles": "CCCn1c2ccccc2c2cnn(CC(=O)NC3CCN(Cc4ccccc4)CC3)c(=O)c21", "activity change": "inconclusive: -31.9%"},
      {"smiles": "O=C(Nc1ccncc1)Nc1ccc(F)c(Cl)c1", "activity change": "inconclusive: -32%"},
      {"smiles": "COC(=O)c1ccc(Oc2nc(Nc3ccc(C)c(C)c3)nc(N(C)C)n2)cc1", "activity change": "inconclusive: -32.8%"},
      {"smiles": "O=S(=O)(CCN1C=CC(C(F)(F)F)=NCC1)c1ccc(Cl)cc1Cl", "activity change": "active: -67.6%"},
      {"smiles": "O=C(CN1C(=O)S/C(=C\\c2cccs2)C1=O)Nc1ccc(O)cc1C(=O)O", "activity change": "inconclusive: -45%"},
      {"smiles": "O=C(c1ccc(-c2ccccc2Cl)o1)N1CCCCCCC1", "activity change": "inconclusive: -36.8%"},
      {"smiles": "COc1ccc(CCNC(=O)c2ccc3c(c2)N(Cc2ccc(F)cc2)CCS3)c(OC)c1", "activity change": "active: -54.8%"},
      {"smiles": "NNC(=O)c1ccc(COc2ccc3c(c2)CCC3)cc1", "activity change": "inconclusive: -31.6%"},
      {"smiles": "COC(=O)c1c(C)[nH]c(C)c1-c1ccccc1", "activity change": "inactive: 6.33%"},
      {"smiles": "O=[N+]([O-])c1cc(Cl)ccc1N1CCN(c2cccc(C(F)(F)F)c2)CC1", "activity change": "inconclusive: -49.2%"},
      {"smiles": "CN(CC(O)COC(c1ccccc1)c1ccccc1)C1CCCCC1", "note": "(stereo not given)", "activity change": "active: -83.5%"},
      {"smiles": "CCCCCNC(=O)C(c1ccncc1)n1c(=O)c(-c2cc3ccccc3[nH]2)nc2ccccc21", "note": "(stereo not given)", "activity change": "inconclusive: -34.3%"},
      {"smiles": "O=C(CSc1nc2ccccc2nc1N1CCOCC1)N1CCN(c2ccccc2)CC1", "activity change": "inactive: -26.8%"},
      {"smiles": "CCOC(=O)/C=C/C(=O)OCC(=O)Nc1ccc(OC)c(Cl)c1", "activity change": "inconclusive: -31%"},
      {"smiles": "O=C(CCl)N(c1ccc(Cl)cc1)c1c[nH]c2ccccc12", "activity change": "active: -109%"},
      {"smiles": "CCN(CC(=O)Nc1ccc(C#N)cc1)CC(=O)Nc1ccc2c(c1)OCCO2", "activity change": "inactive: -3.08%"},
      {"smiles": "O=C(Nc1ccc(Cc2ccncc2)cc1)C1CCC(N2C(=O)C3CC=CCC3C2=O)CC1", "note": "(stereo not given)", "activity change": "active: -70.6%"},
      {"smiles": "CCCc1nc2cc(C)c(Br)c(C)n2c1CC1CCCCC1", "activity change": "inconclusive: -41.1%"},
      {"smiles": "O=C(Nc1cccc(S(=O)(=O)NCc2ccco2)c1)c1cc(-c2ccc(F)cc2)nc2ccccc12", "activity change": "active: -76.9%"},
      {"smiles": "CC1CC(C)CN(CC(=O)Nc2ccc3c(c2)OCCO3)C1", "note": "(stereo not given)", "activity change": "inconclusive: -37.9%"},
      {"smiles": "COc1ccc(-c2[nH]ncc2-c2nc(C)cs2)c(O)c1", "activity change": "inactive: -13.4%"},
      {"smiles": "O=C(Nc1ccc2c(c1)OCO2)c1cc(C2CCCCN2S(=O)(=O)Cc2ccccc2)on1", "note": "(stereo not given)", "activity change": "inconclusive: -31%"},
      {"smiles": "CC(=O)Nc1ccc(N=Nc2ccc(O)cc2)cc1", "activity change": "inconclusive: -46.4%"},
      {"smiles": "CCOc1cc(N2CCOCC2)c(OCC)cc1NC(C)C(=O)N1CCN(CC)CC1", "note": "(stereo not given)", "activity change": "inactive: 63.7%"},
      {"smiles": "Cc1cc(N2CCN(C)CC2)ccc1NC(=O)c1ccc(-c2ccc(Cl)cc2)o1", "activity change": "inconclusive: -45.9%"},
      {"smiles": "COc1cc(/C=C/C(=O)Nc2cc(S(=O)(=O)N3CCOCC3)ccc2N2CCCC2)cc(OC)c1OC", "activity change": "inconclusive: -30.6%"},
      {"smiles": "COc1ccc(CCn2c(=N)c(C(=O)NCc3ccco3)cc3c(=O)n4ccccc4nc32)cc1OC", "activity change": "inconclusive: -44%"},
      {"smiles": "CCc1nc2n[nH]c(N)c2c2c1CCCC2", "activity change": "inconclusive: -32.3%"},
      {"smiles": "O=C(Nc1cc(Cl)cc(Cl)c1)N1CCCN(Cc2ccccc2)CC1", "activity change": "inconclusive: -40.8%"},
      {"smiles": "COc1ccc(C(=O)Nc2ccc(S(=O)(=O)N3CCOCC3)cc2)cc1[N+](=O)[O-]", "activity change": "inconclusive: -46.1%"},
      {"smiles": "O=C(NCCc1ccccc1)C1CCCN1C(=O)Nc1ccc(F)cc1", "note": "(stereo not given)", "activity change": "inactive: -1.6%"},
      {"smiles": "O=C(NCCNc1ccccc1[N+](=O)[O-])c1cc(F)c(F)cc1Cl", "activity change": "inconclusive: -32.4%"},
      {"smiles": "CCN(Cc1ccccc1)S(=O)(=O)c1ccc(C(=O)N(CCCN(C)C)c2nc3cc(OC)ccc3s2)cc1", "activity change": "active: -100%"},
      {"smiles": "COc1ccc(NC(=O)c2cc(-c3ccccc3)oc2C)cc1", "activity change": "inactive: 0%"},
      {"smiles": "CCN(CC)S(=O)(=O)c1cccc(NC(=S)NC(=O)/C=C/c2ccc(S(=O)(=O)N3CCOCC3)cc2)c1", "activity change": "inconclusive: -32.3%"},
      {"smiles": "COc1ccc(CNC(=O)OCCN2CCN(S(=O)(=O)c3ccc(C)cc3)CCC2=O)cc1", "activity change": "inconclusive: -38.3%"},
      {"smiles": "CCNC(=O)C1(C)CCN(Cc2noc(-c3c(C)noc3C)n2)C1", "note": "(stereo not given)", "activity change": "inactive: 19.5%"},
      {"smiles": "O=C(CNC(=O)c1ccccc1Cl)Nc1ccncc1", "activity change": "inconclusive: -36.4%"},
      {"smiles": "CCN(CC)c1ccc(NC(=O)c2ccc(Br)o2)cc1", "activity change": "inconclusive: -34.2%"},
      {"smiles": "Cc1ccc(C(=S)NCS(=O)(=O)c2ccc(C)cc2)cc1", "activity change": "inactive: -3.28%"},
      {"smiles": "CCOc1ccc(CCN2C(=O)C(=O)N([C@@H](CC(C)C)CN3CCC[C@H]3CN3C(=O)C(=O)NC[C@@H]3Cc3ccc(O)cc3)C[C@@H]2CC(C)C)cc1", "activity change": "active: -53.7%"},
      {"smiles": "CN(CC(=O)Nc1cccc(F)c1)C(=O)COc1ccc2c(c1)CCC2", "activity change": "inactive: -29.3%"},
      {"smiles": "COC(=O)C1=C(C(=O)OC)SC(=C2C(=S)C(C)(C)N(C(=O)CC(C)C)c3ccccc32)S1", "activity change": "inconclusive: -49.1%"},
      {"smiles": "O=[N+]([O-])c1cc2ncccc2c2ncccc12", "activity change": "inconclusive: -42.4%"},
      {"smiles": "CC(=O)OCC(=O)C1(O)CCC2C3CCC4=CC(=O)CCC4(C)C3(F)C(O)CC21C", "note": "(stereo not given)", "activity change": "active: -53.2%"},
      {"smiles": "CCN(CC)C(=O)CCCOc1ccc(Cl)cc1Cl", "activity change": "inactive: -28.2%"},
      {"smiles": "CCc1cccc(CC)c1NC(=S)NCCc1ccc(O)c(O)c1", "activity change": "inconclusive: -42%"},
      {"smiles": "CCOC(=O)C1(Cc2ccccc2C(F)(F)F)CCN(CCCn2cccn2)CC1", "activity change": "inconclusive: -46.9%"},
      {"smiles": "O=S(=O)(NNc1ncc(C(F)(F)F)cc1Cl)c1ccccc1", "activity change": "inconclusive: -31.7%"},
      {"smiles": "Cc1cccc(-c2oc3ccccc3c2C#CCCCCO)c1", "activity change": "inconclusive: -40%"},
      {"smiles": "COc1ccc(C(C(=O)NC2CCCCC2)N(C(=O)CCl)c2ccccc2Cl)cc1", "note": "(stereo not given)", "activity change": "inconclusive: -30.4%"},
      {"smiles": "COc1ccc(-c2csc(NC(=O)CN3C(=O)NC4(CCCC4)C3=O)n2)c(OC)c1", "activity change": "inconclusive: -48.8%"},
      {"smiles": "CCOc1cccc(CNCCO)c1OCc1ccc(Cl)cc1", "activity change": "active: -54.7%"},
      {"smiles": "COc1cc(OC)cc(C(=O)OCC(=O)NCc2ccco2)c1", "activity change": "inactive: 0%"},
      {"smiles": "CCOC(=O)c1c(-n2cnnn2)sc2c1CCCC2", "activity change": "inactive: -27.6%"},
      {"smiles": "CCC(Oc1ccccc1)C(=O)NC1CCSC1=O", "note": "(stereo not given)", "activity change": "inconclusive: -44.9%"},
      {"smiles": "COc1ccc(CCNc2ncnc3cc(OC)c(OC)cc23)cc1OC", "activity change": "active: -73.1%"},
      {"smiles": "Cn1nc(C(=O)Nc2nnc(C3CC3)s2)c2ccccc2c1=O", "activity change": "inconclusive: -39.3%"},
      {"smiles": "COc1ccc(NC(=O)C(=O)N/N=C\\c2ccc(CNC(=O)C(=O)Nc3ccc(C)c(C)c3)o2)c(OC)c1", "activity change": "inactive: 28%"},
      {"smiles": "Clc1ccccc1OCCCOc1cccc2cccnc12", "activity change": "inconclusive: -50%"},
      {"smiles": "CCN(C(=S)Nc1ccc(OC(F)F)cc1)C1CCCCC1", "activity change": "inconclusive: -40.4%"},
      {"smiles": "COC(=O)c1ccccc1NC(=S)NC(NC(=O)COc1ccccc1)C(Cl)(Cl)Cl", "note": "(stereo not given)", "activity change": "active: -76.6%"}
    ]}
  ]
}
